{"source": "PubChem BioAssay AID1240", "about": "(Sanford-Burnham Center for Chemical Genomics, 2008)", "note": "Hit rate of the full screen: of about 50,000 compounds, about 800 (1.6%) showed an effect of 50% or more. Some of the results follow."}
{"target": "Bcl-2-like protein 10 (Homo sapiens) (UniProt Q9HD36)", "sequence (Q9HD36 whole entry, looked up)": "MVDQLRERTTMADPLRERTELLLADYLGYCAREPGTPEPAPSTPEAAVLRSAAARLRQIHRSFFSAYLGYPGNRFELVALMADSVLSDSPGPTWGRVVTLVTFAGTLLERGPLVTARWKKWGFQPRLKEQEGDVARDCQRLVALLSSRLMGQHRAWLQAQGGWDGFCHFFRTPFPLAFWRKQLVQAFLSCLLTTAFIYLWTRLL", "assay": "TR3 peptide-Bcl-B binding displacers, biochemical primary FP assay, phenotype converters (AID 1240);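 note: 0% = Bcl-B with tracer peptide and DMSO and 100% = tracer peptide lacking Bcl-B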", "conditions": "GST-Bcl-B / FITC-TR3 peptide fluorescence polarization; stronger effect = higher value; compound at 3.75 mg/L", "units": {"displacement": "%"}}
{"smiles": "CCN(CC)Cc1cc2ccccc2c2c1COC2", "displacement": -17.2}
{"smiles": "O=C1NC(=S)S/C1=C/c1ccc(OCc2cccc(C(=O)O)c2)cc1", "displacement": 14.1}
{"smiles": "NCCCNc1ccc(C(F)(F)F)cc1[N+](=O)[O-]", "displacement": -12.5}
{"smiles": "COc1ccccc1N(CC(=O)N1CCCC1)S(=O)(=O)c1ccccc1", "displacement": 1.7}
{"smiles": "COc1cccc2cc(-c3csc(Nc4ccccc4C)n3)c(=O)oc12", "displacement": 13.8}
{"smiles": "CC1=CC(C)(C)N(Cc2ccc([N+](=O)[O-])cc2)c2ccc(C)cc21", "displacement": 1.8}
{"smiles": "Cc1cc(C(=O)N/N=C/c2c(C)[nH]c3ccccc23)n[nH]1", "displacement": -7.4}
{"smiles": "O=C(CSc1nsc(SCC(=O)N2CCCCC2)n1)N1CCCCC1", "displacement": 1.1}
{"smiles": "COc1ccc(CC(=O)Nc2sc3c(c2C(=O)OC(C)C)CCCCC3)cc1", "displacement": -0.2}
{"smiles": "Oc1ccc(Cl)cc1/C=N/Nc1nc2ccccc2s1", "displacement": -6}
{"smiles": "Cc1cccc(C(=O)Nc2ccc(NC(=O)Cc3ccccc3)cc2)c1", "displacement": 6.6}
{"smiles": "COC(=O)c1ccc(N2C(=O)CC(SC(=NCCc3ccccc3)Nc3ccccc3)C2=O)cc1", "note": "(configuration not stated)", "displacement": -9.4}
{"smiles": "Cc1cc(/C=C2/SC(=O)NC2=O)c(-c2ccccc2)n1-c1ccccc1", "displacement": -9.6}
{"smiles": "CC1CCCN(C(=O)Nc2ccc(F)cc2)C1", "note": "(configuration not stated)", "displacement": -2.3}
{"smiles": "Cc1ccc(N2C(=O)CSC23C(=O)Nc2ccccc23)cc1Cl", "note": "(configuration not stated)", "displacement": 15.2}
{"smiles": "COc1ccc(OCC(=O)N2c3ccccc3C(Nc3ccccc3)CC2C)cc1", "note": "(configuration not stated)", "displacement": 5.1}
{"smiles": "COc1ccc(C2C=C(Nc3ccccc3)C(=O)N2c2ccccc2)c(OC)c1", "note": "(configuration not stated)", "displacement": 7.9}
{"smiles": "O=[N+]([O-])c1ccc(C(=S)N2CCCCC2)cc1", "displacement": -9.7}
{"smiles": "CCC(C)OC(=O)C1=C(C)NC(=O)NC1c1ccccc1", "note": "(configuration not stated)", "displacement": 5.1}
{"smiles": "COc1ccc(/C=C2\\SC(=O)NC2=S)cc1", "displacement": 67.8}
{"smiles": "COc1cccc(N2C(=O)C3C4C=CC(C4)C3C2=O)c1", "note": "(configuration not stated)", "displacement": -3.8}
{"smiles": "CC(=O)CC(=O)Nc1ccc(Cl)c(Cl)c1", "displacement": 3}
{"smiles": "O=C(N/N=C/c1ccc2c(c1)OCO2)c1ccc(CO)nc1", "displacement": 5.9}
{"smiles": "CC(C)c1ccc(/C=C2\\SC(=Nc3ccc(F)cc3)NC2=O)cc1", "displacement": 11.9}
{"smiles": "COc1ccc(/C=C2/C=C(c3ccccc3)OC2=O)c(OC)c1", "displacement": -30}
{"smiles": "O=C1C2CCCC1C(c1ccc3c(c1)OCO3)NC2c1ccc2c(c1)OCO2", "note": "(configuration not stated)", "displacement": 11.9}
{"smiles": "Cc1cc(NC(=O)c2ccc(C(C)(C)C)cc2)ccc1NC(=O)c1ccco1", "displacement": -5.2}
{"smiles": "Cc1ccc(OCC(=O)NC2CC(C)(C)NC(C)(C)C2)c(Br)c1", "displacement": -0.3}
{"smiles": "Cc1cc(O)c(C(C)C)cc1NC(=O)c1cc(C(C)(C)C)oc1C", "displacement": -6.7}
{"smiles": "Cc1sc(NC(=O)/C=C/c2ccccc2)c(C(N)=O)c1C", "displacement": 7.9}
{"smiles": "COc1ccc(N(CC(=O)NCc2ccccc2)S(=O)(=O)c2ccc(C)cc2)cc1OC", "displacement": -7.7}
{"smiles": "Cn1c(Sc2nc3ccc([N+](=O)[O-])cc3s2)nc2sc3c(c2c1=O)CCCC3", "displacement": -10.3}
{"smiles": "CNc1nc(C)nc(-n2nc(C)cc2C)n1", "displacement": -13.5}
{"smiles": "CC12C(=O)C(C(c3ccccc3)NC1c1ccccc1)C(c1ccccc1)NC2c1ccccc1", "note": "(configuration not stated)", "displacement": 11}
{"smiles": "C=CCNC(=O)CN(c1ccccc1OC)S(=O)(=O)c1ccccc1", "displacement": 3.3}
{"smiles": "O=C(NCC1CCN(C(=O)c2cccc(F)c2)CC1)c1cccc(F)c1", "displacement": 7.8}
{"smiles": "Cc1nc2cc(-c3ccccc3)nn2c(C)c1C", "displacement": -6.7}
{"smiles": "COc1ccc(NC(=O)CN(c2cccc(Cl)c2)S(C)(=O)=O)c(OC)c1", "displacement": -0.9}
{"smiles": "CCN(CC)CCCNC(=O)c1cccc(OC)c1", "displacement": -4.2}
{"smiles": "COc1ccc(C2CC(=O)C3=C(C2)Nc2ccccc2NC3c2ccc(Br)s2)cc1", "note": "(configuration not stated)", "displacement": -2.2}
{"smiles": "O=C(c1ccc(F)cc1)N1CCN(C2CCC(c3ccccc3)CC2)CC1", "note": "(configuration not stated)", "displacement": 9.5}
{"smiles": "N#CCOc1ccccc1/C=N/c1sc2c(c1C#N)CCCC2", "displacement": -19.9}
{"smiles": "Cc1ccc2[nH]c(C)c(CN3CCCC3)c(=O)c2c1", "displacement": 11}
{"smiles": "COc1ccc(/C=C2/C(=O)NC(=O)N(c3ccc(C(C)C)cc3)C2=O)cc1O", "displacement": -28.6}
{"smiles": "CCc1ccc(CN2CCN(C(=O)c3ccc(F)cc3)CC2)cc1", "displacement": 13.1}
{"smiles": "CN(C)c1ccc(/C=N/Nc2nc(-c3cc4ccccc4oc3=O)cs2)cc1", "displacement": 10.4}
{"smiles": "COc1ccccc1/C=C/C=N\\N1CCN(c2ccc(Cl)cc2)CC1", "displacement": 2.2}
{"smiles": "COc1ccccc1OCC(=O)Nc1cccc(C(C)=O)c1", "displacement": -5.2}
{"smiles": "Cc1ccc(N2C(=O)/C(=C/c3ccccc3C)C(=O)NC2=S)cc1", "displacement": 7}
{"smiles": "CSc1ccc(S(=O)(=O)N(CC(=O)Nc2ccc(Cl)cc2)c2ccc(C)cc2)cc1", "displacement": 11.6}
{"smiles": "Cc1ccc(C)c(N(CC(=O)O)S(=O)(=O)c2ccccc2)c1", "displacement": -18.2}
{"smiles": "CCOC(=O)c1c(NC(=O)CCc2ccccc2)sc(C(=O)Nc2ccccc2OC)c1C", "displacement": -6.4}
{"smiles": "O=C1NC(=O)N(c2ccccc2)C(=O)/C1=C\\c1ccc(OCCOc2ccccc2)cc1", "displacement": 7}
{"smiles": "O=C(NCCc1ccc(F)cc1)C(=O)Nc1cccc(C(F)(F)F)c1", "displacement": -6.3}
{"smiles": "Cc1c(Cl)cccc1NC(=O)C1C(c2ccccc2)=C1c1ccccc1", "displacement": -9.6}
{"smiles": "COc1ccccc1NC(=O)C(=O)NCCO", "displacement": 14}
{"smiles": "COc1cc(C(=O)Nc2ccc(NC(C)=O)cc2)c([N+](=O)[O-])cc1OC", "displacement": 5.8}
